In PMC12136788:
This is one part of the list.

T1: UNK ZnF1-3 (human, UniProt Q9C0B0 31-174)
T1 sequence: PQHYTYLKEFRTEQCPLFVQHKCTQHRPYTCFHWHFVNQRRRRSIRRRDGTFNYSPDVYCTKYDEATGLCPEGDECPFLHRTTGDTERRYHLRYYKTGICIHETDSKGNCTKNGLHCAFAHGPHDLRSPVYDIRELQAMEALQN

B1: chr4:76703833:76703834:+_ENSG00000138768_ENST00000264904|hu_mus|FALSE|FALSE (ssRNA)
RNA: GGGAGUUCUACAGUCCGACGAUCAUUGGAAUUGUUGGUUUUUAACAAGUUUUGAAGUAAAAUCAAACAAUCUUCCACUACUAUACCUCCGUCACUGUUCCCCUCCUCUGUAAUAAUGUCCAGCAGUCGCUCAAAAGCAUUUUCCAACAGAGGAUUGAGCAUCA
B2: chr2:129025431:129025432:+_ENSMUSG00000027397_ENSMUST00000028880|mus_hu|FALSE|FALSE (ssRNA)
RNA: GGGAGUUCUACAGUCCGACGAUCGUACUGGUAAUCAGCGUUGCCAUUCUCUGGAGUAGUGGUUGUUUAGUAAGAGAACUACUGAGCGCCUUUCAAGAUGUGUAAACAGAAUAUGAGGUAUCAAAAAUGCUAUAAUAAAUAAUACAACAGAGGAUUGAGCAUCA
B3: chr4:140556289:140556290:+_ENSMUSG00000036622_ENSMUST00000037055|mus_mus|mus_mus_mus_hu_False|28_38 (ssRNA)
RNA: GGGAGUUCUACAGUCCGACGAUCGAUGGAGCUCACCAGGCCCCCUUUUGCCGUGCAGAACCCUGUGCGGGUCACCACUGCCAGGACGUGCGGUCCCACGUAGGCUCGGGCCUGCAGGAUGAGGGUCCCGCAGAAGAGUGUGUGCAACAGAGGAUUGAGCAUCA
B4: chr9:2804355:2804356:-_ENSG00000080608_ENST00000397885|hu_mus|FALSE|FALSE (ssRNA)
RNA: GGGAGUUCUACAGUCCGACGAUCCGGGUUCCCGCUUGCUCAUCCUGCUGCCUACGCAGUCAGCUUCUCAAGCAGGGUCUGGAUGCCUCUGCUGCUGCUUUUGUUUUUUUCCAAGGUAGGAAUCAGGGGUUUCAGUCCACCUUUCAACAGAGGAUUGAGCAUCA
B5: chr2:217001844:217001845:+_ENSG00000079246_ENST00000392132|hu_hu|hu_hu_hu_mus_False|1_78 (ssRNA)
RNA: GGGAGUUCUACAGUCCGACGAUCACCAACUUGAGGAUUAGAUCUUUUGUCAUAAGCAUAUCGAACUAUGGCGACCAUGUUUAACUCAUCCAAAGCAUGAACGAGAGAGGAAAGGGCAACAGCUGCCGCCUCAUCAUCUCUUGCCAACAGAGGAUUGAGCAUCA
B6: chr4:132926270:132926271:+_ENSMUSG00000028854_ENSMUST00000030669|mus_mus|motif|central (ssRNA)
RNA: GGGAGUUCUACAGUCCGACGAUCGAGAUUCACAAUCUCAAAGUCCAAACUGCAAAAAGGGGUUAAGUACCUUGGAGGGACGGAGGAGGAAACCGAAAGGAUCUAGAACUUCAGGCUGAGAGAAGGAAAUCGGGGAAACUGCGUCAACAGAGGAUUGAGCAUCA
B7: chr2:175094126:175094127:-_ENSG00000138430_ENST00000344357|hu_mus|FALSE|FALSE (ssRNA)
RNA: GGGAGUUCUACAGUCCGACGAUCUCUGCUCUCAUUAGGAUCAAUAGUGCAGAAUGGGAAGUUUUCUGCUGAAGCCUGACUAUUGGUUAAUACAUUGAAGAAGGUAGACUUCCCAACAUUUGGCAAUCCAACGAUACCAAUUUUCAACAGAGGAUUGAGCAUCA
B8: 126997051_126997171_7805_CDS_ENSMUSG00000040249_ENSMUST00000049149|mouse|control|control (ssRNA)
RNA: GGGAGUUCUACAGUCCGACGAUCGAUGCCCAUGGGUUGCUGGGGAAUGUCCACCCGAAGCAGCUUCAUGUCGCUGCCCACAUACUUGUUGGCUCGCUGCACAGCCCGCCGCACCCAGUCAGUCCAGAAAAUGUGCUCUCCGUACAACAGAGGAUUGAGCAUCA
B9: chr20:52831857:52831858:+_ENSG00000101132_ENST00000441080|hu_hu|FALSE|FALSE (ssRNA)
RNA: GGGAGUUCUACAGUCCGACGAUCAAGCAUGAUGUCAUCACAAGCAUCUUCUAGGUUUUGGAGUUGUUUCUUUUUUACUUCUAUUUCUUCCUUCAGCUCUGUGAUUCUACUUGUAUUCCGUGCAAAUUUGUUUAUCUUUUGUUGCAACAGAGGAUUGAGCAUCA
B10: chr6:40197388:40197389:+_ENSMUSG00000057716_ENSMUST00000061740|mus_mus|mus_mus_mus_hu_False|68_98 (ssRNA)
RNA: GGGAGUUCUACAGUCCGACGAUCGAGACACUGGGGUGGAUGGCACCCACCUCUGUUUGGGUGCUAGUAAGAUAGAUUGUUAUUUUGGGAUUCAUGGCCUUGAAUAUCAAGAGGGAAAGGAAGAGGAUGGAAAGAGUCAAGAGUCAACAGAGGAUUGAGCAUCA
B11: chr1:169356373:169356374:+_ENSG00000117475_ENST00000367808|hu_hu|motif|central (ssRNA)
RNA: GGGAGUUCUACAGUCCGACGAUCGGCAAUCAGUUCUCCCCGGCAGUGAUUGCAGCAAUUGAAAGUUAUAUUUUCAUAUCGGGUAUAGGGAUGAAAUCGUCCAAUAUUUUUCUUUGUAGCAAGUAAGGUGGUUGGUGAAGACUCCAACAGAGGAUUGAGCAUCA
B12: chr2:25103730:25103731:-_ENSMUSG00000006471_ENSMUST00000100329|mus_hu|FALSE|FALSE (ssRNA)
RNA: GGGAGUUCUACAGUCCGACGAUCACAGUCCCGCUUCUCCAGCUCCUGCCACUCAGCCUCCCAGUAGAAGUCUUGGUCCCGCCAGCGGCAGCCAAAAAACAAGAAGUUUCCAGUCUGGCCCUGGGCCACACGCUCCUGGAUGGCCAACAGAGGAUUGAGCAUCA
B13: chr1:6218034:6218035:+_ENSMUSG00000025907_ENSMUST00000027040|mus_hu|FALSE|FALSE (ssRNA)
RNA: GGGAGUUCUACAGUCCGACGAUCAUUAAAACUGGCUUAUGUUUGCUUUGCUUGAGAUUGGCAACUGAAUGGCAUUACUGGUUAAACUCAGAAAACCGGCAACGCCUCCUCCUUCGCCGGCGGCAGCAGCAGAGCCAGCGACCCCAACAGAGGAUUGAGCAUCA
B14: chr14:94545736:94545737:-_ENSG00000089737_ENST00000330836|hu_mus|FALSE|FALSE (ssRNA)
RNA: GGGAGUUCUACAGUCCGACGAUCCUCGGACGCUUUGACUUCAUACUCAUUCUGGGCAGCAGCGCCUUCGGCAGCUCGUGCCGCAUCUCUCUGCUUCUUCAACUUGAUCUUUUUCUUUGGGGAGCUGGACUGUCCUUCCUCCUCCAACAGAGGAUUGAGCAUCA
B15: chr16:94690093:94690094:+_ENSMUSG00000040785_ENSMUST00000117648|mus_hu|mus_mus_mus_hu_True|48_108 (ssRNA)
RNA: GGGAGUUCUACAGUCCGACGAUCGGGGACUCCUGUGGGACACACAGCCUCGAUUCCAGGGGGAAAAAGUCUUAGUCGAUACUAAUUUAAAAAGUAUAAUGAUUUUUGAAAAUCAGAUUACAUCUAUAAAAGAUGAAAAGCAAACAACAGAGGAUUGAGCAUCA
B16: chr5:71494600:71494601:+_ENSG00000131711_ENST00000296755|hu_hu|FALSE|FALSE (ssRNA)
RNA: GGGAGUUCUACAGUCCGACGAUCCAUUGUAUCGAAUAACACUGAGGCACGGAAGCCAUAGGGCUCUGCGGAUGCUGCAUCUAUUGGUGGAGAAGAGGAACUGUGGCAAGUUGCUGUUUUCUCUUUGACUGCAGAGGUAGAAUCCAACAGAGGAUUGAGCAUCA
B17: chr12:111875471:111875472:+_ENSMUSG00000018707_ENSMUST00000018851|mus_mus|FALSE|FALSE (ssRNA)
RNA: GGGAGUUCUACAGUCCGACGAUCGUCUGUCCACUCCCUGGUGUUGGGAUCCAAGGUUCCGUAGAGGUGGUCUUUGCUGAUGGCCUUGGGGUCAAUUAUGUGGGCCACGCCCUCCACACCCUCAAGCCUCUCUAGAGCCUUCAGCAACAGAGGAUUGAGCAUCA
B18: chr2:202488911:202488912:-_ENSG00000155755_ENST00000286196|hu_mus|hu_hu_hu_mus_False|1_1 (ssRNA)
RNA: GGGAGUUCUACAGUCCGACGAUCAUUGAAACAUUUUUCAUAAUCUCCAGUAGCAUUUCAGCAUUAUGUAACAAAAGCUCAAUUGUAAAUACAUGUAUCUUAUAAAAAUACACUUAAAAACACGAGUGGGGAGCGCACAAAUACCAACAGAGGAUUGAGCAUCA
B19: 72566378_72566498_195_3pUTR_ENSMUSG00000031858_ENSMUST00000050561|mouse|control|control (ssRNA)
RNA: GGGAGUUCUACAGUCCGACGAUCAUCCGCUGAGGCGGCUUGAAGGGGAACACGGCCUGCAGGCAAUGAACGCACAAGCGGAUCUUGGGCGGGCUAGAUGUUCGGAAGUGCUCGGCGAAACCCAGGAGAGCCAGAUACCACGACCAACAGAGGAUUGAGCAUCA
B20: chr7:150253219:150253220:+_ENSMUSG00000037706_ENSMUST00000037941|mus_mus|FALSE|FALSE (ssRNA)
RNA: GGGAGUUCUACAGUCCGACGAUCCCGGAUGCCACAGCACAGCACCAUGCUCAGAAUCAUCUCAAAGAUCAUAAUGACAGCUACCACAAUGGCUGCAAUUCCAAUGAGGUACAGCUUCCCAGAGAAGAGCUCAUCGAUUUUCUGCAACAGAGGAUUGAGCAUCA
B21: chr1:212156110:212156111:-_ENSG00000143493_ENST00000366992|hu_hu|FALSE|FALSE (ssRNA)
RNA: GGGAGUUCUACAGUCCGACGAUCUCCAUGAGCUGCAAUGCCCCUGUUAUUAUGGUAACAGCACUCUUGGGCUAAUUUGACUAAAUCAGAAGAUCUGGGAGAAGAACUCACAUUUCCUGGAACUAUACUGAAGUAAUGUUUGAUCAACAGAGGAUUGAGCAUCA
B22: chr6:53132721:53132722:-_ENSG00000012660_ENST00000304434|hu_mus|FALSE|FALSE (ssRNA)
RNA: GGGAGUUCUACAGUCCGACGAUCCCCCAUUUGUAUGACCGAUGCCUCGAGCGCACUAGACACGAUUUUAGGAUAAGCAGUCCAAGCACUUUAAACCGAUCUUUAGGUGCUAAUCAGAAAAAAAUUACAGAUGCCACCAUGAUUCAACAGAGGAUUGAGCAUCA

target: T1, UNK ZnF1-3; assay: nsRBNS (natural sequence RNA bind-n-seq); RBNS binding buffer (assumed for nsRBNS): 25 mM Tris pH 7.5, 150 mM KCl, 3 mM MgCl2, 0.01% Triton X-100, 500 ug/ml BSA, 20 U/ml SUPERase-In, 4 C; UNK is unkempt and MSI1 is Musashi-1; names of the RNAs are library labels; protein concentration not given here; high values mean tight binding

First: B1
Second: B2
The binding signal of the first is lower: 0.703 enrichment R for the first, 2.08 enrichment R for the second.

First: B3
Second: B4
The binding signal of the first is higher: 1.11 enrichment R for the first, 0.361 enrichment R for the second.

Compared with B5, B6 is higher in binding signal: 1.45 enrichment R for the first, 1.49 enrichment R for the second.

First: B7
Second: B8
The binding signal of the first is higher: 1.13 enrichment R for the first, 0.81 enrichment R for the second.

Compared with B9, B10 is higher in binding signal: 0.342 enrichment R for the first, 2.01 enrichment R for the second.

First: B11
Second: B12
The binding signal of the first is higher: 1.8 enrichment R for the first, 1.39 enrichment R for the second.

Compared with B13, B14 is lower in binding signal: 0.92 enrichment R for the first, 0.501 enrichment R for the second.

First: B15
Second: B16
The binding signal of the first is lower: 0.973 enrichment R for the first, 1.33 enrichment R for the second.

Going from B17 to B18, the binding signal rises from 0.653 enrichment R to 1.19 enrichment R.

Compared with B19, B20 is lower in binding signal: 1.69 enrichment R for the first, 1.29 enrichment R for the second.

Going from B21 to B22, the binding signal falls from 1.23 enrichment R to 1.06 enrichment R.
